± gives the standard deviation of the averaged measurements. This is one part of the list.

The record followed here is the supplement of paper PMC11417369.

This assay relates to PfAP2-I AP2 domain 3 (GST-tagged). Description: gcPBM binding intensity (ln(normalized median fluorescence intensity)); higher = stronger DNA binding. In a few lines: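 For binding intensity, the highest Masliner-normalised natural-log median intensity across replicate spots of either probe orientation was taken. Protein bound to the array was stained with Alexa488 anti-GST antibody and scanned at 488 nm. The protein, GST-tagged P. falciparum DNA-binding domains from E. coli at about 25 μg on average, had been applied for 1 h to an Agilent 4 × 180k array of primer-extended double-stranded 36-bp intergenic genomic probes and negative controls.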
As to “ATATATATATATATATGTACTTATTTATTTATATTA [XGTACX_site4646]”, the “gcPBM binding intensity (ln)” value worked out at 9.54 ± 0.61.

For the sequence “TTACGATACTTTAGGTGTACACAAATATACATGAAT [XGTACX_site4322]”, the “gcPBM binding intensity (ln)” value was determined as 8.48 ± 0.59.

For the sequence “TATAAATATAAATATACACACATATATATATATATA [CACACA_site1678]”, the “gcPBM binding intensity (ln)” value came out at 9.19 ± 0.68.

On to “TTGCATTAATTTATGTGTACATATAAATTTTTATTT [XGTACX_site3060]”, for which the “gcPBM binding intensity (ln)” value was determined as 8.21 ± 0.15.

With “CTTATAGGTCATTTCCTTGACCCCCTTTGTTGTACT [CACACA_negctrl_site551]”, the “gcPBM binding intensity (ln)” value stood at 7.98 ± 0.27.

On to “ATCAGTCGGCAGGACAGTACACAGTAGCCAGAAAAT [XGTACX_site2550]”, for which the “gcPBM binding intensity (ln)” value was 7.98 ± 0.76.

Turning to “GAAAAATTAAAACCTACACACACATTTAAAAAAAAA [CACACA_site9005]”, the “gcPBM binding intensity (ln)” value worked out at 7.71 ± 0.67.

Take “ATAAATACATATGTGTGTACACATTATATATATATA [XGTACX_site1486]”: the “gcPBM binding intensity (ln)” value was found to be 9.03 ± 0.67.

Regarding “ATATATATATAATCATCACACATGCAGCCCTGATGA [CACACA_site5500]”, the “gcPBM binding intensity (ln)” value amounted to 9.015 ± 0.021.

As for “TATATATTACATACATGTACCCAAAAAAAAAAAAAA [XGTACX_site1168]”, the “gcPBM binding intensity (ln)” value stood at 8.21 ± 0.57.

With “GAATGAATACGTTTTACACACTTGAATCTAATTTCA [CACACA_site6593]”, the “gcPBM binding intensity (ln)” value was 7.62 ± 0.74.

On to “ATTCTACTTTTATTTATTTATTTGTTTATATATATA [XGTACX_negctrl_site609]”, for which the “gcPBM binding intensity (ln)” value came out at 8.39 ± 0.33.

With “TTTTTTATTCATGTAACACACATTTAATTATGAATT [CACACA_site2706]”, the “gcPBM binding intensity (ln)” value is 7.98 ± 0.58.

On to “ATTTGTTCCTTGGGAGTTTACTTTTTTTTAATTTTA [CACACA_negctrl_site638]”, for which the “gcPBM binding intensity (ln)” value is 7.86 ± 0.7.

On to “TATAAAAATATATATATATATATATATATAATATGT [TGCATGCA_negctrl_site85]”, for which the “gcPBM binding intensity (ln)” value was determined as 8.09 ± 0.28.

“TTAAAAAAAAAACACACACACATACCCATATATATA [CACACA_site5768]”: the “gcPBM binding intensity (ln)” value is 8.19 ± 0.74.

“TTCTTTTTAATTAATACACACACACCCATATATATA [CACACA_site8719]”: the “gcPBM binding intensity (ln)” value came to 8.43 ± 0.51.

Consider “AAAAAATTAGATTATGCACACACACTAATAAATAAT [CACACA_site8604]”, for which the “gcPBM binding intensity (ln)” value was 9.89 ± 0.47.

In the case of “AACAAAATTGAAGGAACACACATACATATTTATATA [CACACA_site6227]”, the “gcPBM binding intensity (ln)” value amounted to 7.42 ± 0.58.

Turning to “TTTATTTAAGAAAAATGTACAGGTTCATTTCATAAT [XGTACX_site27]”, the “gcPBM binding intensity (ln)” value was determined as 7.39 ± 0.4.

Consider “CATATAAATACATGCACACAAAAATATCAATACATT [CACACA_site2392]”, for which the “gcPBM binding intensity (ln)” value is 8.26 ± 0.37.

Consider “GGTCTAACAACATGCGCACACACATGAATATTCATA [CACACA_site1539]”, for which the “gcPBM binding intensity (ln)” value stood at 8.81 ± 0.49.

As for “TAAGTATAAAAAAATAGTACAATTATGAAATATCGT [XGTACX_site2529]”, the “gcPBM binding intensity (ln)” value was 8.13 ± 0.5.

“TTTTTTTTTTTTTTATGTACACATCTAAAAAAAAGG [XGTACX_site2067]”: the “gcPBM binding intensity (ln)” value was 8.19 ± 0.38.
